Data as given in article PMC4336329 (PLoS ONE, 2015).
Out of some 310,000 compounds screened, about 14,000 (4.5%) showed an effect of 50% or more. Effects have a minus sign here. Some of the results follow.

target: human ether-à-go-go-related gene (hERG) potassium channel (human, UniProt Q12809); experiment: primary screen, population patch clamp on CHO cells stably expressing hERG
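Note: peak tail current of the secondary pulse compared with the same well before compound.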

Chain of human ether-à-go-go-related gene (hERG) potassium channel (Q12809 whole entry, looked up): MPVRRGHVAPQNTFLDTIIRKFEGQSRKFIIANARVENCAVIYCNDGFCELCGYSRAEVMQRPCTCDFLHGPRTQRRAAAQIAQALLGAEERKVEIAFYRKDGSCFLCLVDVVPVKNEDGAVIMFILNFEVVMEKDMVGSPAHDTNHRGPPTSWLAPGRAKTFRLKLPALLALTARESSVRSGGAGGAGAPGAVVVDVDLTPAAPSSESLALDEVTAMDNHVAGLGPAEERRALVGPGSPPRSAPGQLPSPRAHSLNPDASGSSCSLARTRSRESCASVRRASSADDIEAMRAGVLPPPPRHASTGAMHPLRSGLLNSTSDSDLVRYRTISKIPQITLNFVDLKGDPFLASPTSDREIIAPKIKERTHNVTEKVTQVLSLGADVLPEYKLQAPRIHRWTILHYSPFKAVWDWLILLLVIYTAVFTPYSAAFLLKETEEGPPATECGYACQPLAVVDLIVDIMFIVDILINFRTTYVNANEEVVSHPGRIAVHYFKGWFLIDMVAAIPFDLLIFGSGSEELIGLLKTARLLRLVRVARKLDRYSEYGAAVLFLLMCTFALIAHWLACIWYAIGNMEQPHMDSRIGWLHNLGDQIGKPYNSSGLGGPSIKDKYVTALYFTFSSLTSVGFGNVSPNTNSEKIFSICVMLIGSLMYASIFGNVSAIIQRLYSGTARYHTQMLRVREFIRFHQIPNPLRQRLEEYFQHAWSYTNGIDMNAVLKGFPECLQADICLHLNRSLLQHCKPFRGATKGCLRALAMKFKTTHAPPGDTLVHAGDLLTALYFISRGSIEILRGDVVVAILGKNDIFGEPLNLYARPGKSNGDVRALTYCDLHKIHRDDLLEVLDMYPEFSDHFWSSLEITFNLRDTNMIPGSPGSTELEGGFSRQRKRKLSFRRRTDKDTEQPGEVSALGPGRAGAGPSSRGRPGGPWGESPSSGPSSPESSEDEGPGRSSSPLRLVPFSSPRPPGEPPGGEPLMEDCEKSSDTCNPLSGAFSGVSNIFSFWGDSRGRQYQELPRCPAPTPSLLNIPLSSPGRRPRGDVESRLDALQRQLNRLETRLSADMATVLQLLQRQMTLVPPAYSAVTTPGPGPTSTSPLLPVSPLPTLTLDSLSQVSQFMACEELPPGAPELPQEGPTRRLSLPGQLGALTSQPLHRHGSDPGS

Going from Brc1ccc(-c2csc(N/N=C/c3ccc4c(c3)OCO4)n2)cc1 to Cc1cc(SCC(=O)OCC(=O)NCc2ccc3c(c2)OCO3)c(C)cc1Br, the “hERG current change (%, negative = inhibition) at 10uM” value falls from 21.3% to 2.21%.

Going from CCc1nnc(NC(=O)c2ccc(Cl)c(S(=O)(=O)N3CCc4ccccc4C3)c2)s1 to COC(=O)C(=O)Nc1nnc(COc2ccccc2)s1, the “hERG current change (%, negative = inhibition) at 10uM” value falls from 5.89% to 4.14%.

Compared with COc1ccc(CCn2c(N3CCOCC3)nc3c2c(=O)[nH]c(=O)n3C)cc1, CC(C)CSc1nc2c(c(=O)[nH]c(=O)n2C)n1CCc1ccccc1 is higher in “hERG current change (%, negative = inhibition) at 10uM” value: -15.5% for the first, 10.4% for the second.

Compared with O=C(CN1CCCCC1)N1c2ccccc2Oc2ccccc21, O=C(NCCC1CCCCN1S(=O)(=O)c1ccccc1)C(=O)Nc1ccccc1 (centres unmarked) is lower in “hERG current change (%, negative = inhibition) at 10uM” value: -8.22% for the first, -12.3% for the second.

Compared with O=C(O)CCNc1ccc2c(c1)OCCO2, O=C(Cn1nc(-c2ccc3c(c2)OCCO3)ccc1=O)Nc1cccc(NC(=O)c2ccccn2)c1 is higher in “hERG current change (%, negative = inhibition) at 10uM” value: 1.69% for the first, 14.3% for the second.

Compared with CCc1ccccc1NC(=O)CN(C)S(=O)(=O)c1ccc2c(c1)c(=O)n(C)c(=O)n2C, Cc1ccc(NC(=O)C2CCCN2S(=O)(=O)c2ccc3c(c2)n(C)c(=O)c(=O)n3C)cc1C (centres unmarked) is higher in “hERG current change (%, negative = inhibition) at 10uM” value: -1.01% for the first, 8.25% for the second.

Going from O=c1c2ccccc2oc2cc(-c3ccc4[nH]ccc4c3)ccc12 to O=C(c1ccc(F)cc1)c1cc2ccccc2o1, the “hERG current change (%, negative = inhibition) at 10uM” value falls from 11.4% to -0.588%.

Compared with C#CCOCCOCCOCCNc1nc(N2CCN(C(=O)CCCCCCCCCCNC(=O)[C@@H]([C@H](C)O)n3cc(C)nn3)CC2)nc(N2CCN(C(=O)CCCCCCCCCCNC(=O)[C@@H]([C@H](C)O)n3cc(C)nn3)CC2)n1, COc1ccc(N2CCN(C(=O)c3cc([N+](=O)[O-])ccc3N3CCN(CCO)CC3)CC2)cc1 is lower in “hERG current change (%, negative = inhibition) at 10uM” value: 0.635% for the first, -24.6% for the second.

Compared with O=C(NCc1ccccc1)c1ccc(-c2ccccc2C(F)(F)F)o1, O=C(NCc1ccccc1Cl)c1ccc(CS(=O)Cc2ccc(Cl)cc2)o1 (centres unmarked) is lower in “hERG current change (%, negative = inhibition) at 10uM” value: -2.8% for the first, -46.9% for the second.

First: Cn1ccnc1SCC(=O)c1ccc(Br)cc1
Second: COc1cccc(CNC(=O)Cc2ccc(Br)cc2)c1
The “hERG current change (%, negative = inhibition) at 10uM” value of the first is lower: -18.2% for the first, 5.59% for the second.

First: CCOC(=O)CCNC(=O)N1CCCC(CNS(=O)(=O)Cc2ccccc2)C1 (centres unmarked)
Second: O=C(CC1CCCCC1)NCCS(=O)(=O)N1CCN(c2ccccc2)CC1
The “hERG current change (%, negative = inhibition) at 10uM” value of the first is higher: 4.2% for the first, 3.95% for the second.

Compared with COc1ccc(C(=O)C(C)(C)NO)cc1.Cl, CN(C)C(=O)COc1ccc2ccc(=O)oc2c1 is lower in “hERG current change (%, negative = inhibition) at 10uM” value: 5.05% for the first, -5.56% for the second.

Going from CNCCc1c(C)n[nH]c1C.Cl to Cc1nc2ccc(CCO)cc2s1, the “hERG current change (%, negative = inhibition) at 10uM” value rises from 14.6% to 15.8%.

Compared with c1ccc2[nH]c(-c3nc4ccccc4[nH]3)nc2c1, Cn1c(SCC(=O)NCc2ccc(F)cc2)nc2ccccc21 is lower in “hERG current change (%, negative = inhibition) at 10uM” value: 10.1% for the first, -36.4% for the second.

Going from Cc1ccc(CN(C)C(=O)COC(=O)CSc2ccc([N+](=O)[O-])cc2)cc1 to COC(=O)C1(C)NC(c2ccco2)C2C(=O)N(c3ccc(C)cc3)C(=O)C21 (centres unmarked), the “hERG current change (%, negative = inhibition) at 10uM” value falls from -6.23% to -22.5%.

Compared with CC(=O)Oc1cccc(N2C(=O)c3ccccc3C2=O)c1, CN(C)S(=O)(=O)c1cccc2c1C(=O)c1ccccc1C2=O is lower in “hERG current change (%, negative = inhibition) at 10uM” value: 13.2% for the first, -17.2% for the second.

Going from CC(=O)c1c(OC(=O)c2ccccc2)c2ccccc2n1C to Cn1c2ccccc2c2nnc(SCC(=O)Nc3cccc(C(=O)O)c3)nc21, the “hERG current change (%, negative = inhibition) at 10uM” value falls from 9.18% to 5.62%.

Going from COc1ccc(CC(=O)N(C)CC(=O)Nc2ccccc2C(F)(F)F)cc1S(=O)(=O)N1CCOCC1 to Cc1ccc(S(=O)(=O)N2CCCCC2)cc1C(=O)N(C)CC(=O)Nc1cccc(F)c1, the “hERG current change (%, negative = inhibition) at 10uM” value falls from 5.49% to -49.6%.

First: Cn1c(=O)n(Cc2ccccc2)c(=O)c2c1nc1n2CCS1
Second: CC(C)Cn1c(=O)c2ccccc2n2c(CCC(=O)O)nnc12
The “hERG current change (%, negative = inhibition) at 10uM” value of the first is lower: -1.93% for the first, 21.5% for the second.

First: O=C(COc1ccc2ccccc2c1Br)Nc1cccnc1
Second: Oc1ccc2ccccc2c1CNc1ccc(Br)cc1
The “hERG current change (%, negative = inhibition) at 10uM” value of the first is higher: 20.1% for the first, 18.7% for the second.

First: Cc1ccc(C)c(NS(=O)(=O)c2cc(C(=O)NCc3ccncc3)ccc2C)c1
Second: Cc1ccc(-c2n[nH]c(=O)c3ccccc23)cc1S(=O)(=O)N(C)C
The “hERG current change (%, negative = inhibition) at 10uM” value of the first is lower: -45.6% for the first, 5.85% for the second.

Compared with O=C(Nc1ccccc1)C1=C[C@@H](C2CCCCC2)C[C@@H](OCCCCO)O1, O=C(COc1ccccc1)N1CCN(c2ncccn2)CC1 is higher in “hERG current change (%, negative = inhibition) at 10uM” value: -5.2% for the first, 10.5% for the second.

Going from Cc1cc(C)cc(NS(=O)(=O)c2cc(Br)cnc2N)c1 to Cc1cc(C)cc(NC(=S)/C(=C(\[O-])c2ccc(Cl)cc2Cl)[n+]2ccc(C(C)(C)C)cc2)c1, the “hERG current change (%, negative = inhibition) at 10uM” value falls from 12.7% to 6.04%.

Going from COc1cccc(CNC(=O)CCS(=O)(=O)c2ccc3c(c2)NC(=O)C(C)S3)c1 (centres unmarked) to COc1ccc(CCNC(=O)c2ccc3c(c2)NC(=O)C(N2CCOCC2)S3)cc1OC (centres unmarked), the “hERG current change (%, negative = inhibition) at 10uM” value falls from -0.951% to -9.48%.

First: COc1ccc(COc2ccccc2C(=O)Nc2ccccn2)cc1[N+](=O)[O-]
Second: CC(Sc1nnc(Cc2ccccc2)o1)C(=O)Nc1ccccc1[N+](=O)[O-] (centres unmarked)
The “hERG current change (%, negative = inhibition) at 10uM” value of the first is lower: 0.837% for the first, 6.68% for the second.

Compared with Cc1ccc2c(c1)C(c1ccccc1)CC(=O)O2 (centres unmarked), CS(=O)(=O)N(CC(=O)Nc1cc(Cl)ccc1Cl)c1ccccc1Cl is higher in “hERG current change (%, negative = inhibition) at 10uM” value: -5.2% for the first, 10.6% for the second.

First: NS(=O)(=O)c1cc2c(cc1Cl)NC(Cc1ccccc1)NS2(=O)=O (centres unmarked)
Second: O=C(c1cc2ccccc2o1)N1CCN(S(=O)(=O)c2ccc(Cl)s2)CC1
The “hERG current change (%, negative = inhibition) at 10uM” value of the first is higher: 13.8% for the first, 11.9% for the second.

Going from CCOc1ccc(CN2CCN(Cc3ccc4cc(F)ccc4n3)CC2CCO)cc1 (centres unmarked) to O=C(NCc1ccc(F)cc1)C1(S(=O)(=O)c2ccc(Cl)cc2)CC1, the “hERG current change (%, negative = inhibition) at 10uM” value rises from -75.7% to 9.35%.

First: NC(=O)c1snnc1-c1ccccc1
Second: COC(=O)[C@@H](NC(=O)c1ccccc1)[C@@H](C)O
The “hERG current change (%, negative = inhibition) at 10uM” value of the first is higher: 13.9% for the first, 3.99% for the second.

Going from CCC(=O)c1cn(/C(=C\C(=O)OC(C)(C)C)CCC(OC)OC)cc1CC to CCn1cc(C(=O)N[C@H](C(=O)NCCCO)C(C)C)c(=O)c2cc3c(cc21)OCO3, the “hERG current change (%, negative = inhibition) at 10uM” value rises from -15.1% to 19.7%.

Going from COc1ccccc1-n1c(CNC(=O)COc2ccccc2)n[nH]c1=S to COC(=O)C(O)(c1ccc(N(C)C(=O)COc2ccccc2)cc1)C(F)(F)F (centres unmarked), the “hERG current change (%, negative = inhibition) at 10uM” value falls from 13.3% to -0.114%.

Going from Cc1cccc(C)c1-n1nnnc1-c1cnccc1C(F)(F)F to Cc1nn(C)c(C)c1CNC(=O)c1cc2n(n1)C(C(F)(F)F)CC(c1cccs1)N2 (centres unmarked), the “hERG current change (%, negative = inhibition) at 10uM” value rises from 0.675% to 4.65%.

First: CN(C)c1ccc(N=Nc2cccc3ccoc23)cc1
Second: Cc1cc(C)c(OCC(=O)N(Cc2ccc(N(C)C)cc2)C2CCS(=O)(=O)C2)c(C)c1 (centres unmarked)
The “hERG current change (%, negative = inhibition) at 10uM” value of the first is higher: 16.4% for the first, -19.5% for the second.

Compared with Br.O=C1SC(SC(=Nc2ccccc2)Nc2ccccc2)C(=O)N1c1ccccc1 (centres unmarked), O=C1C2=C(Nc3ccccc3SC2c2ccco2)c2ccccc21 (centres unmarked) is lower in “hERG current change (%, negative = inhibition) at 10uM” value: 11.1% for the first, 9.09% for the second.

First: CCCn1c(O)c(N=NC(=O)c2cccnc2)c2cc(Br)ccc21
Second: COc1ccc(C(=O)NCCN2C(=O)S/C(=C\c3cccnc3)C2=O)cc1[N+](=O)[O-]
The “hERG current change (%, negative = inhibition) at 10uM” value of the first is higher: -3.7% for the first, -63.8% for the second.

Going from O=C(C1CCOCC1)N1CCCC(N2CCN(c3cccc(Cl)c3)CC2)C1 (centres unmarked) to O=C(N/N=C/c1ccc([N+](=O)[O-])cc1)C(=O)N1CCCC1, the “hERG current change (%, negative = inhibition) at 10uM” value rises from -20.4% to 13.5%.

Going from CC(OC(=O)c1ccc(S(=O)(=O)N(C)C)cc1)C(=O)Nc1ccc(Cl)cn1 (centres unmarked) to O=C(Cc1c(F)cccc1Cl)Nc1ccc(S(=O)(=O)N2CCCC2)cc1, the “hERG current change (%, negative = inhibition) at 10uM” value falls from 15.7% to 2.98%.

Going from Cc1nc(N2CCN(S(=O)(=O)c3ccc(F)cc3)CC2)c2c(-c3cccs3)csc2n1 to CCOC(=O)N1CCN(S(=O)(=O)c2ccc(C(=O)Nc3sc4c(c3C(N)=O)CCN(CC)C4)cc2)CC1, the “hERG current change (%, negative = inhibition) at 10uM” value falls from 11.6% to 4.36%.

Compared with CCOC(=O)CN1C(=O)S/C(=C/c2ccc3c(c2)n(C)c(=O)n3C)C1=O, Cn1c(=O)n(C)c2cc(NC(=O)c3ccc(F)cc3)ccc21 is lower in “hERG current change (%, negative = inhibition) at 10uM” value: 2.62% for the first, -1.78% for the second.

Going from Cc1cc(C)c(S(=O)(=O)n2ccc(-c3ccc(OCCN(C)c4ccccn4)cc3)n2)c(C)c1 to CCn1cc(C(=O)Nc2ccc(OC)c(S(=O)(=O)N3CCCCC3)c2)c(=O)c2ccc(C)nc21, the “hERG current change (%, negative = inhibition) at 10uM” value rises from 0.97% to 10.5%.

Compared with Cc1ccc(C(=O)Nc2c3c(nn2C(C)(C)C)CS(=O)(=O)C3)cc1C, COCC1CCN(C(=O)c2cc(COc3cncc(Cl)c3)on2)C1 (centres unmarked) is higher in “hERG current change (%, negative = inhibition) at 10uM” value: -6.24% for the first, 5.09% for the second.

With CCC1OC(=O)C(C)C(OC2C[C@@](C)(OC)C(O)C(C)O2)C(C)C(O[C@@H]2OC(C)CC(N(C)C)C2O)[C@](C)(O)CC(C)C(=NOCOCCOC)C(C)C(O)[C@]1(C)O (some centres unmarked) the “hERG current change (%, negative = inhibition) at 10uM” value was 18.8%.
